The supplement of paper PMC9446081
In all, about 39,000 compounds went through this assay and about 220 (0.56%) showed activity. Some of the results follow.

system: Escherichia coli K-12 BW25113; assay: relative growth (OD600 normalised to plate interquartile mean) (fraction); higher = less growth inhibition, active = 0.2 or less; conditions: 50 µM; LB; incubation time: overnight (16-24 h)
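Note: static incubation at 37 °C against the wild-type strain, values averaged over two biological replicates.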

SMILES | relative growth
C[C@H]1CN([C@@H](C)CO)C(=O)c2cccc(NC(=O)c3ccncc3)c2O[C@H]1CN(C)Cc1ccc(-c2ccccc2)cc1 | inactive: 0.991
CNC(=O)C[C@@H]1CC[C@H]2[C@@H](COC[C@@H](O)CN2C(=O)c2ccccn2)O1 | inactive: 0.989
O=C(C[C@@H]1C[C@@H]2c3cc(NS(=O)(=O)c4ccc(F)cc4)ccc3O[C@@H]2[C@@H](CO)O1)NCc1cccnc1 | inactive: 0.997
CC(C)NC(=O)N(C)C[C@H]1OCCCC[C@H](C)Oc2ccc(NS(C)(=O)=O)cc2C(=O)N([C@@H](C)CO)C[C@@H]1C | inactive: 1
C[C@@H]1CN([C@H](C)CO)C(=O)c2cc(NC(=O)CCN3CCOCC3)ccc2O[C@H]1CN(C)Cc1ccccc1 | inactive: 1.03
CC(C)CC#Cc1ccc2c(c1)O[C@H](CN(C)C(=O)Cc1cccnc1)[C@@H](C)CN([C@H](C)CO)S2(=O)=O | inactive: 1.01
C[C@@H]1CN([C@@H](C)CO)C(=O)c2cccc(NC(=O)C3CCOCC3)c2O[C@@H]1CN(C)Cc1ccc(C(=O)O)cc1 | inactive: 1
COc1ccc(S(=O)(=O)Nc2ccc3c(c2)C(=O)N([C@@H](C)CO)C[C@H](C)[C@@H](CN(C)C(=O)Nc2c(C)noc2C)O3)cc1 | inactive: 0.996
CC(C)C[C@H](NC(=O)N1CCCCCC1)C(=O)N[C@H](Cc1cn(C)c2ccccc12)C(=O)N[C@H](Cc1ccccn1)C(=O)O | inactive: 1
C[C@H](CO)N1C[C@H](C)[C@@H](CN(C)Cc2ccc(Cl)c(Cl)c2)Oc2ccc(NC(=O)C3CCCCC3)cc2C1=O | inactive: 0.896
C=CCOC(=O)[C@H]1[C@@H]2C(=O)O[C@@H](c3ccccc3)[C@@H](c3ccccc3)N2[C@@H](c2ccc(OCCOC(=O)[C@H]3C[C@H]4C(=O)N[C@@H](CCCCNC(C)=O)C(=O)N4[C@H]3c3ccc(O)cc3)cc2)[C@]12C(=O)Nc1ccccc12 | inactive: 1.05
O=C(C[C@@H]1C=C[C@H](NC(=O)Nc2cc(F)ccc2F)[C@H](CO)O1)NCCCN1CCOCC1 | inactive: 0.926
Cc1n[nH]c(=O)nc1NCCN(C)C | inactive: 0.986
COc1ccc(CN(C)C[C@@H]2OCCCC[C@H](C)Oc3ccc(NC(=O)c4ccccc4)cc3C(=O)N([C@H](C)CO)C[C@H]2C)cc1 | inactive: 0.999
COCCNC(=O)C[C@@H]1C[C@@H]2c3cc(NC(=O)CN(C)C)ccc3O[C@@H]2[C@@H](CO)O1 | inactive: 0.999
O=C(O)C[C@@H]1C(=O)O[C@H]2[C@@H](OC(=O)c3cc(O)c(O)c(O)c3)[C@H](OC(=O)c3cc(O)c(O)c4c3[C@H]1[C@H](O)C(=O)O4)[C@H](OC(=O)c1cc(O)c(O)c(O)c1)O[C@@H]2COC(=O)c1cc(O)c(O)c(O)c1 | inactive: 0.566
COCC(=O)N1[C@@H]2c3cccc(=O)n3C[C@@H]2[C@@H](CO)[C@@H]1C(=O)NCc1ccccc1 | inactive: 1
C[C@H](CO)N1C[C@H](C)[C@H](CN(C)CC2CC2)Oc2ccc(NS(=O)(=O)c3ccc(F)cc3)cc2C1=O | inactive: 0.992
C[C@H](CO)N1C[C@H](C)[C@H](CN(C)C(=O)Cc2cccnc2)Oc2ncc(C#CC3(O)CCCC3)cc2C1=O | inactive: 1

SMILES | relative growth
CO[C@@H]1CN(C)C(=O)c2ccc(NC(=O)C3CC3)cc2OC[C@@H](C)N(C(=O)Nc2ccc(C(F)(F)F)cc2)C[C@H]1C | inactive: 0.941
O=C(O)C[C@@H](NCCN[C@H](CC(=O)O)C(=O)O)C(=O)O | inactive: 0.991
C[C@@H]1CN([C@@H](C)CO)C(=O)Cc2cc(NC(=O)Nc3ccc(F)cc3)ccc2O[C@@H]1CN(C)Cc1ccc(C(F)(F)F)cc1 | inactive: 1.03
CCS(=O)(=O)Nc1ccc2c(c1)C(=O)N(C)[C@H]1CC[C@H](CC(=O)NCCOC)O[C@@H]1CO2 | inactive: 0.971
COc1ccc(S(=O)(=O)Nc2ccc3c(c2)CC(=O)N([C@H](C)CO)C[C@H](C)[C@H](CN(C)S(=O)(=O)c2c(C)noc2C)O3)cc1 | inactive: 0.993
O=C(C[C@H]1CC[C@@H]2[C@H](COC[C@H](O)CN2C(=O)Nc2cccc(F)c2)O1)NCCCN1CCOCC1 | inactive: 0.918
C[C@@H]1CN([C@H](C)CO)C(=O)Cc2cc(NC(=O)Cn3cnnn3)ccc2O[C@H]1CN(C)Cc1ccc(Cl)c(Cl)c1 | inactive: 0.946
NC1CCC(c2ccccc2)CC1 (stereo not drawn) | inactive: 0.987
C[C@@H]1CN([C@H](C)CO)C(=O)c2cc(NC(=O)NC3CCCCC3)ccc2O[C@@H](C)CCCCO[C@@H]1CN(C)C(=O)NC1CCCCC1 | inactive: 1.03
C[C@@H]1CN([C@H](C)CO)C(=O)c2cc(NC(=O)C3CC3)ccc2O[C@H]1CN(C)C(=O)NC1CCCCC1 | inactive: 0.992
COc1ccc(S(=O)(=O)N(C)C[C@@H]2Oc3c(NC(=O)c4cc(C)nn4C)cccc3C(=O)N([C@H](C)CO)C[C@H]2C)cc1 | inactive: 1.02
C[C@H]1CN([C@@H](C)CO)C(=O)c2cccc(NC(=O)C3CCOCC3)c2O[C@@H]1CN(C)Cc1ccc(Oc2ccccc2)cc1 | inactive: 1.02
CC(C)NC(=O)N(C)C[C@@H]1Oc2c(NS(=O)(=O)c3ccccc3)cccc2C(=O)N([C@H](C)CO)C[C@@H]1C | inactive: 0.99
C[C@H]1CN([C@@H](C)CO)S(=O)(=O)c2ccc(Br)cc2O[C@H]1CN(C)C(=O)c1cnccn1 | inactive: 0.992
Cc1ccc(S(=O)(=O)NCC[C@H]2CC[C@H](NS(=O)(=O)c3ccccc3Cl)[C@H](CO)O2)cc1 | inactive: 0.96
[O-][NH2+]N1CCCC1 | inactive: 1.04
CCOC(=O)c1ccc(N2NC(=O)/C(=C/c3ccc([N+](=O)[O-])o3)C2=O)cc1 | inactive: 0.984
NCC1OC(OC2C(N)CC(N)C(OC3OC(CO)C(O)C(N)C3O)C2O)C(O)C(O)C1O.O=S(=O)(O)O (stereo not drawn) | inactive: 0.982
C[C@@H]1CN([C@H](C)CO)C(=O)c2cccc(NS(=O)(=O)c3ccc(F)cc3)c2O[C@@H]1CN(C)Cc1ccc(Cl)c(Cl)c1 | inactive: 1.01
